Test results reported in PubChem BioAssay AID1745853 (National Center for Advancing Translational Sciences (NCATS), 2022).
This is one part of the list. These are further read-outs of the screen, such as a control signal, another cell line or another target. No call is given for them.

Assays:
Assay in all cases: Primary Screen for Target Class Profiling of Small Molecule Inhibitors of Methyltransferases
[1] = target: Glycine N-methyltransferase (Homo sapiens) (UniProt Q14749); conditions: purified enzyme, MTase-Glo SAH luminescence; measured here: GNMT inhibition; at 40 µM; stronger effect = lower value
Summary of the method: (§1)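 Each enzyme was reacted with SAM and its substrate, with compounds tested once at 40 uM; SAH formed was read by MTase-Glo luminescence.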

[2] = target: Guanidinoacetate N-methyltransferase (Homo sapiens) (UniProt Q14353); conditions: purified enzyme, MTase-Glo SAH luminescence; measured here: GAMT inhibition; at 40 µM; stronger effect = lower value
Summary of the method: as §1

[3] = target: Histamine N-methyltransferase (Homo sapiens) (UniProt P50135); conditions: purified enzyme, MTase-Glo SAH luminescence; measured here: HNMT inhibition; at 40 µM; stronger effect = lower value
Summary of the method: as §1

[4] = target: Nicotinamide N-methyltransferase (Homo sapiens) (UniProt P40261); conditions: purified enzyme, MTase-Glo SAH luminescence; measured here: NNMT inhibition; at 40 µM; stronger effect = lower value
Summary of the method: as §1

[5] = target: Phenylethanolamine N-methyltransferase (Homo sapiens) (UniProt P11086); conditions: purified enzyme, MTase-Glo SAH luminescence; measured here: PNMT inhibition; at 40 µM; stronger effect = lower value
Summary of the method: as §1
% is scaled to controls: 0 for no effect and ±100 for the full control effect.

Row | SMILES | activity change, negative = inhibition [1] | activity change, negative = inhibition [2] | activity change, negative = inhibition [3] | activity change, negative = inhibition [4] | activity change, negative = inhibition [5]
1 | COc1ccccc1CNC(=O)C1(C)Cn2cnc(C(=O)Nc3ccccc3OC)c2C(=O)N1C1CC1 (stereo not given) | 2.15% | 0% | 14.3% | 6.65% | 9.29%
2 | C=C1CC2OC(=O)C(=C)C2C(O)/C=C(\C)CCC1O (stereo not given) | 0.846% | -2.22% | 6.5% | -11.1% | -4.29%
3 | Cc1cnn(CCC(=O)NC2CCc3nnc(C)n3CC2)c1 (stereo not given) | 0.819% | 0.666% | 1.22% | -0.741% | 4.78%
4 | O=C(CCc1cc2n(n1)CCCNC2)Nc1ccc2c(c1)OCCO2 | -13.2% | -12.3% | -9.1% | -18.3% | -26%
5 | Cn1cc(-c2ccc3nnc(Sc4ccc5nn(C)cc5c4)n3n2)cn1 | -21.5% | 1.96% | 3.42% | -16.4% | -1.36%
6 | CC(C)CCn1c(=O)c2ccccc2n2c(=O)n(Cc3ccc(F)cc3)nc12 | 4.72% | 1.31% | 10.4% | -1.79% | 6.37%
7 | Cc1nc(CN2CCN(c3cc(C4CC(O)C4)ncn3)CC2)cs1 (stereo not given) | -5.03% | -7.65% | -1.35% | -6.45% | -3.79%
8 | O=C(c1cccnc1)N1CCC2(CC1)C(=O)NN=C2c1cccnc1 | -6.16% | -8.62% | -1.47% | -20.5% | -8.8%
9 | COc1ccccc1CNC(=O)c1cc2n(n1)CC(C)(C(=O)NC1CCCCCC1)N(C)C2=O (stereo not given) | 0.638% | 4.68% | -0.408% | 3.55% | 0.063%
10 | CCCn1c(=O)c2ccccc2n2c(=O)n(CC(=O)c3ccccc3)nc12 | -2.28% | 0.136% | 8.12% | -12.9% | 4.24%
11 | C/C(=C\CCC(C)C1CC(O)C2(C)C3CCC4C(C)(C)C(OC5OCC(O)C(O)C5O)CCC45CC35CC(O)C12C)C(=O)O (stereo not given) | -1.4% | -5.66% | 6.02% | -15.8% | 0.081%
12 | CC(=O)OC(C)C(C)(O)C(=O)O[C@@H]1CC[C@]2(C)CC(=O)C(=C(C)C)C[C@H]2[C@]1(C)OC(C)=O (stereo not given in full) | -0.844% | 2.95% | 3.85% | -9.45% | -5.12%
13 | O=C1COCC2(CN(CCC(F)(F)F)C2)CN1Cc1cccc(OC(F)(F)F)c1 | -0.924% | -5.23% | -0.634% | -8.35% | 4.89%
14 | Cn1c(=O)n(C)c2cc(S(=O)(=O)N(Cc3ccccc3)C(=O)c3ccco3)ccc21 | 4.15% | -17.9% | 3.82% | -24% | -0.348%
15 | CCCn1c(=O)c2ccc(Cl)cc2n2c(=O)n(CC(=O)NC3CCCCC3)nc12 | 2.85% | 0% | 5.3% | -0.598% | -0.776%
16 | CCC1c2ccc(C)n2CCN1C(=O)Nc1ccccc1OC (stereo not given) | -7.19% | 0% | -6.22% | 6.17% | -1.51%
17 | Cc1ccc(NC(=O)CN(C)S(=O)(=O)c2ccc3[nH]c4c(c3c2)CCCC4)cc1C | 3.58% | 0.131% | 5.96% | 1.05% | 2.41%
18 | CCCn1c(=O)c2ccccc2n2c(SCc3cccc(C)c3)nnc12 | -6.46% | 1.62% | 3.83% | -8.15% | 2.66%
19 | Fc1ccc2nc(CO[C@H]3CN(C4CCC4)C[C@H]3F)[nH]c2c1 | -3.02% | -3.41% | -3.21% | -1.64% | -4.62%
20 | CC(C)NC(=O)C1COC2(CCCCC2)N1C(=O)Cc1ccccc1 (stereo not given) | -1.48% | -1.67% | 1.29% | -7.15% | 8.61%

Row | SMILES | activity change, negative = inhibition [1] | activity change, negative = inhibition [2] | activity change, negative = inhibition [3] | activity change, negative = inhibition [4] | activity change, negative = inhibition [5]
21 | CCOC(=O)c1cc2n(n1)CC(C)(C(=O)NC1CCCC1)N(c1cc(Cl)ccc1OC)C2=O (stereo not given) | 2% | 3.68% | 6.65% | -1.35% | 3.13%
22 | O=C(NCC1CC1)C1CCCN(C2CCN(Cc3ccncc3)CC2)C1 (stereo not given) | -2.34% | -1.31% | -0.546% | -9.02% | -4.71%
23 | O=C(Cc1ccc(F)c(F)c1F)N[C@@H]1CCNC[C@H]1O | -1.45% | -0.281% | -0.255% | -0.412% | -0.691%
24 | CC(C)OC(=O)N1CCC(COc2ccc3c(cnn3CCC(=O)O)c2)CC1 | -4.92% | -0.279% | 0.435% | -9.36% | -4.08%
25 | COc1ccc(-c2nc(C3CC3)nc3c2CCN(CCC(C)C)CC3)cc1 | -6.34% | -1.55% | -11.2% | -13.9% | -26.4%
26 | COC(=O)[C@]1(C)CCC[C@@]2(C)[C@@H]3CC[C@@H]4C[C@@]3(CC[C@@H]21)C[C@H]4C(=O)O | -18% | 2.88% | 7.16% | -12.5% | 1.86%
27 | COc1ccc(-c2cc3n(n2)CC(C)(C(=O)NCc2ccccc2)N(c2cccc(F)c2)C3=O)cc1 (stereo not given) | -3.53% | 3.84% | 2.34% | -0.724% | -1.31%
28 | CC(C)CNC(=O)c1ccc2c(=O)n(C(C)C)c3nn(Cc4cccc(F)c4)c(=O)n3c2c1 | 1.64% | 0% | 7.18% | 0.737% | -0.485%
29 | CCc1nc2c(NC(=O)c3ccc(F)c(Cl)c3)cccn2n1 | -2.35% | -12.2% | -0.659% | -10.8% | -19.8%
30 | CCOc1cccc(C2c3cccn3-c3sc4c(c3CN2C(=O)NCCCOC)CCCC4)c1 (stereo not given) | -5.76% | 0% | 3.96% | -7.84% | 4.2%
31 | CN1CCCN(CC(=O)N2CCCC(c3ccc(C(=O)O)cc3)C2)CC1 (stereo not given) | 0.171% | -3.6% | 1.07% | 3.12% | 0.699%
32 | Cn1c(=O)n(C)c2cc(S(=O)(=O)N3CCN(C4CCCCC4)CC3)c(Cl)cc21 | 2.71% | 4.44% | -34% | -3.58% | -5.6%
33 | O=C(c1ccc2c(=O)nc3c(-c4cccc(F)c4)n[nH]n3c2c1)N1CCN(c2ccccn2)CC1 | -7.55% | 4.3% | -5.14% | -2.4% | -2.09%
34 | O=C1NC2(CCN(Cc3ccccc3)C2)Oc2ccccc21 (stereo not given) | -8.89% | -6.14% | -2.86% | -9.54% | -4.63%
35 | COC(=O)CC(C)(O)CC(=O)OCc1ccc(O[C@@H]2O[C@H](CO)[C@@H](O)[C@H](O)[C@H]2O)cc1 (stereo not given in full) | 3.56% | 5.59% | 5.75% | -6.35% | 7.15%
36 | CC1CCC2(C(=O)O)CCC3(C)C(=CCC4C5(C)CCC(OC(=O)/C=C/c6ccccc6)C(C)(C)C5CCC43C)C2C1C (stereo not given) | -3.46% | 0.257% | 10.8% | -13.4% | -9.98%
37 | CN(CCc1ccccc1)[C@@H]1[C@H](O)[C@H](CO)O[C@@H]1CNS(=O)(=O)c1cccs1 | -1.47% | -1.71% | -4.56% | -3.8% | 0.724%
38 | CC(C)=CCC[C@](C)(O[C@@H]1O[C@H](CO[C@@H]2OC[C@@H](O)[C@H](O)[C@H]2O)[C@@H](O)[C@H](O)[C@H]1O)[C@H]1CC[C@]2(C)[C@@H]1[C@H](O)C[C@@H]1[C@@]3(C)CC[C@H](O[C@@H]4O[C@H](CO)[C@@H](O)[C@H](O)[C@H]4O)C(C)(C)[C@@H]3CC[C@]12C | -0.711% | 9.26% | 0.073% | -1.62% | 2.21%
39 | CC(C)C[C@H](CO)Nc1nc(S[C@@H](C)c2ccccc2)nc2nc(N)sc12 | -10.1% | -0.839% | 2.93% | -50.2% | -4.36%
40 | CO[C@H]1c2cc(C(C)C)c(O)c(O)c2[C@@]23CCCC(C)(C)C2[C@@H]1OC3=O (stereo not given in full) | -1.8% | 1.91% | 5.79% | -12.1% | 2.97%

Row | SMILES | activity change, negative = inhibition [1] | activity change, negative = inhibition [2] | activity change, negative = inhibition [3] | activity change, negative = inhibition [4] | activity change, negative = inhibition [5]
41 | CC(C)c1nc2c(c(-c3ccc(O)cc3)n1)CCN(C(=O)C1CCCC1)CC2 | -1.87% | -0.569% | 2.33% | -9.34% | 0.024%
42 | NCCC(=O)N1CCC2(CC1)CN(C(=O)c1ccc(Cl)cc1)CCO2 | -5.34% | -10.1% | -4.29% | -14.3% | -10.2%
43 | CC12CC3CC(C)(C1)CC(N)(C3)C2 | -2.61% | -1.04% | -5.03% | -12% | -5.24%
44 | Cc1ncc(CN2CCCC2C(=O)Nc2ccc(-c3cccc(F)c3)cc2)[nH]1 (stereo not given) | -2.05% | -2.38% | -15.8% | -6.68% | -1.67%
45 | O=C1NC(=NC2CCCCC2)C2(CCN(CC3CCCCC3)C2)N1c1cccnc1 (stereo not given) | -11.2% | -4.68% | -2.48% | -41.3% | -4.91%
46 | CCCn1c(=O)c2ccccc2n2c(SCC(=O)Nc3ccc(C)cc3Cl)nnc12 | -14.1% | 0% | 1.98% | -9.99% | 0.967%
47 | O=C(/C=C/c1ccccc1O)O[C@@H]1O[C@H](CO)[C@@H](O)[C@H](O)[C@H]1O | 4.18% | 7.95% | 5.01% | -3.94% | 8.15%
48 | CC(C)Cn1c(=O)c2ccc(C(=O)NC(C)C)cc2n2c(=O)n(CC(=O)c3ccc(Cl)cc3)nc12 | 0.606% | 5.62% | 2.66% | -1.89% | 2.06%
49 | CCCn1c(=O)c2ccc(C(=O)NC(C)C)cc2n2c(=O)n(Cc3ccc(N4CCCC4=O)cc3)nc12 | 6.38% | 3.06% | 10.7% | 0.517% | 7.57%
50 | CC(C)CN1C(=O)CCc2cc(NC(=O)C3CCC3)ccc21 | -4.7% | -9.94% | -11.7% | -12.9% | -14.1%
51 | C=C1CN(Cc2ccc(C(=O)Nc3ccccc3N)cc2)C(=O)c2ccccc21 | -5.59% | 9.89% | -2.06% | -18.1% | -12.9%
52 | C[C@H]1[C@H](C)C[C@@H](C(=O)O)C2CC[C@]3(C)C(=CC[C@@H]4[C@@]5(C)CC[C@H](O)C(C)(C)[C@@H]5CC[C@]43C)[C@@H]21 (stereo not given in full) | -9.98% | -7.39% | -8.43% | -29.4% | -18%
53 | CC(=O)Nc1c2n(c3ccccc13)CC(C)(C(=O)NC1CCCC1)N(C1CCCCC1)C2=O (stereo not given) | 3.6% | 0.174% | 2.35% | 5.94% | 2.03%
54 | COc1ccc(OC)c(CNC(=O)C2(CCO)CC23CCOCC3)c1 (stereo not given) | -1.45% | -3.1% | 0.151% | -3.24% | 3.56%
55 | CCOC(=O)C1=Cc2ccc(C(F)(F)C(F)(F)F)cc2N=C(N)C1 | -4.54% | 10.1% | 11.9% | -16.7% | 8.13%
56 | O=C(N[C@@H]1CN(C(=O)c2ccccn2)CC[C@@H]1CO)C1CC1 | -0.424% | 1.1% | -0.448% | -0.765% | 0.369%
57 | COc1cccc(-c2ccccc2NC(=O)C2CCN(Cc3ccccc3F)CC2)c1 | -2.9% | -0.504% | -8.24% | -4.09% | 7.59%
58 | Cc1[nH]c(/C=C2\C(=O)Nc3ccc(F)cc32)c(C)c1C(=O)NCCN1CCCC1 | -12.6% | 4.84% | -40.9% | -8.83% | -8.48%
